Test results from patent US20210228731A1, “ANTIBODY DRUG CONJUGATES FOR ABLATING HEMATOPOIETIC STEM CELLS” (NOVARTIS AG, priority 2018, published 2021).
One block for each molecule: values may come before it.

Columns and labels:
mouse cKIT = target: T1, mouse cKIT (Mus musculus, UniProt P05532); assay: Cross reactivity of cKIT antibodies to mouse cKIT; format: binding
T1 construct: 3.125-50 nM of cKIT receptor extracellular domains (ECD) were diluted in a 2-fold series; purchased Sino Biological Inc 50530-M08H
T1 sequence (P05532 25-527 limits assumed): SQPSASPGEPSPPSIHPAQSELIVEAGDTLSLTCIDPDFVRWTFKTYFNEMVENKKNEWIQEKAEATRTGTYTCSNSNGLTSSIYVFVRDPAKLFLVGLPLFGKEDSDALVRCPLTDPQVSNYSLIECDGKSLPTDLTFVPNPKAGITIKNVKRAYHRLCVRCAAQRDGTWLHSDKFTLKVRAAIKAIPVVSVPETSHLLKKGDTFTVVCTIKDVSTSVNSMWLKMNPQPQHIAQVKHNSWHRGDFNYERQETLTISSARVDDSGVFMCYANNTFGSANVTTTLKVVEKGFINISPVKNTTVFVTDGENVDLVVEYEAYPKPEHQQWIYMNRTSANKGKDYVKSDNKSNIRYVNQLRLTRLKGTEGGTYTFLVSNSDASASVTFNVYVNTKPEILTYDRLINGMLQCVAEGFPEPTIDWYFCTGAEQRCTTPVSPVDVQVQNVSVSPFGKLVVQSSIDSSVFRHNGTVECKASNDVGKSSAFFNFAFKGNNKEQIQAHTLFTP

rat cKIT = assay: Cross reactivity of cKIT antibodies to rat cKIT; format: binding
[1] = tested on: human peripheral blood HSC-derived mast cells; assay: In vitro human mast cell degranulation assay (beta-hexosaminidase release); format: cell-based; conditions: test agents 0.006-25 nM cross-linked with antibody specific for the Fab portion; absence of SCF
Description: Mature mast cells were generated using CD34+ progenitors from mobilized peripheral blood. CD34+ cells were cultured in StemSpan SFEM (StemCell Technologies) supplemented with recombinant human stem cell factor (rhSCF, 50 ng/ml, Gibco), recombinant human interleukin 6 (rhIL-6, 50 ng/ml, Gibco), recombinant human IL-3 (30 ng/ml, Peprotech), GlutaMAX ([…], Gibco), penicillin (100 U/ml, Hyclone) and streptomycin (100 μg/ml, Hyclone). Recombinant hll-3 was added only during the first week of the culture. After the third week, half of the medium was replaced weekly with fresh medium containing rhIL-6 (50 ng/ml) and rhSCF (50 ng/ml). Mature mast cell purity was evaluated by surface staining of high-affinity IgE receptor (FCεRI, eBioscience) and CD117 (BD). […]
The derived mast cells were washed once to remove SCF, and the required amount of cells was incubated overnight in mast cell medium containing rhIL-6 (50 ng/ml) with or without rhSCF (50 ng/ml). […] During this incubation, p-nitro-N-acetyl-pi-D-gluosamine (pNAG, Sigma) buffer was prepared by sonicating 3.5 mg/ml of pNAG in citrate buffer (40 mM citric acid, 20 mM sodium phosphate dibasic, pH 4.5). β-hexosaminidase release was measured by mixing 20 μl of cell supernatant with 40 μl of pNAG solution in a flat-bottom 384-well plate. […] Absorbance was read using a plate reader at λ=405 nm with reference filter at λ=620 nm. […]

Reactivity to mouse cKIT (mouse cKIT): Yes
B1: Anti-cKIT Ab5: full length anti-cKIT antibody, heavy chain SEQ ID NO: 97, light chain SEQ ID NO: 110 (antibody)
heavy: QVQLVQSGAEVKKPGESLKISCKGSGYSFTNYWIAWVRQMPGKGLEWMGIIYPSNSYTLYSPSFQGQVTISADKSISTAYLQWSSLKASDTAMYYCARVPPGGSISYPAFDHWGQGTLVTVSSASTKGPSVFPLAPSSKSTSGGTAALGCLVKDYFPEPVTVSWNSGALTSGVHTFPAVLQSSGLYSLSSVVTVPSSSLGTQTYICNVNHKPSNTKVDKRV[human IgG1 Fc left out]
light: DIELTQPPSVSVSPGQTASITCSGDNIGSIYASWYQQKPGQAPVLVIYRDNKRPSGIPERFSGSNSGNTATLTISGTQAEDEADYYCSVTDMEQHSVFGGGTKLTVLGQPKAAPSVTLFPPSSEELQANKATLVCLISDFYPGAVTVAWKADSSPVKAGVETTTPSKQSNNKYAASSYLSLTPEQWKSHRSYSCQVTHEGSTVEKTVAPTECS
Reactivity to rat cKIT (rat cKIT): Yes

Reactivity to mouse cKIT (mouse cKIT): Yes
B2: Anti-cKIT Ab4: full length anti-cKIT antibody, heavy chain SEQ ID NO: 71, light chain SEQ ID NO: 84 (antibody)
heavy: QVQLQQSGPGLVKPSQTLSLTCAISGDSVSTNSAAWNWIRQSPSRGLEWLGRIYYRSQWLNDYAVSVKSRITINPDTSKNQFSLQLNSVTPEDTAVYYCARQLTYPYTVYHKALDVWGQGTLVTVSSASTKGPSVFPLAPSSKSTSGGTAALGCLVKDYFPEPVTVSWNSGALTSGVHTFPAVLQSSGLYSLSSVVTVPSSSLGTQTYICNVNHKPSNTKVDKRV[human IgG1 Fc left out]
light: DIELTQPPSVSVSPGQTASITCSGDNLGDQYVSWYQQKPGQAPVLVIYDDTDRPSGIPERFSGSNSGNTATLTISGTQAEDEADYYCQSTDSKSVVFGGGTKLTVLGQPKAAPSVTLFPPSSEELQANKATLVCLISDFYPGAVTVAWKADSSPVKAGVETTTPSKQSNNKYAASSYLSLTPEQWKSHRSYSCQVTHEGSTVEKTVAPTECS
mast cell degranulation (beta-hexosaminidase release) when cross-linked [1]: caused mast cell degranulation when cross-linked
Reactivity to rat cKIT (rat cKIT): Yes
